The source of these data is PMC4336329 (PLoS ONE, 2015).

Screen size: about 310,000 compounds; about 2,200 (0.71%) showed an effect of 50% or more. The effect is printed as a negative number. This is one part of the list.

human ether-à-go-go-related gene (hERG) potassium channel, sequence (Q12809 whole entry, looked up): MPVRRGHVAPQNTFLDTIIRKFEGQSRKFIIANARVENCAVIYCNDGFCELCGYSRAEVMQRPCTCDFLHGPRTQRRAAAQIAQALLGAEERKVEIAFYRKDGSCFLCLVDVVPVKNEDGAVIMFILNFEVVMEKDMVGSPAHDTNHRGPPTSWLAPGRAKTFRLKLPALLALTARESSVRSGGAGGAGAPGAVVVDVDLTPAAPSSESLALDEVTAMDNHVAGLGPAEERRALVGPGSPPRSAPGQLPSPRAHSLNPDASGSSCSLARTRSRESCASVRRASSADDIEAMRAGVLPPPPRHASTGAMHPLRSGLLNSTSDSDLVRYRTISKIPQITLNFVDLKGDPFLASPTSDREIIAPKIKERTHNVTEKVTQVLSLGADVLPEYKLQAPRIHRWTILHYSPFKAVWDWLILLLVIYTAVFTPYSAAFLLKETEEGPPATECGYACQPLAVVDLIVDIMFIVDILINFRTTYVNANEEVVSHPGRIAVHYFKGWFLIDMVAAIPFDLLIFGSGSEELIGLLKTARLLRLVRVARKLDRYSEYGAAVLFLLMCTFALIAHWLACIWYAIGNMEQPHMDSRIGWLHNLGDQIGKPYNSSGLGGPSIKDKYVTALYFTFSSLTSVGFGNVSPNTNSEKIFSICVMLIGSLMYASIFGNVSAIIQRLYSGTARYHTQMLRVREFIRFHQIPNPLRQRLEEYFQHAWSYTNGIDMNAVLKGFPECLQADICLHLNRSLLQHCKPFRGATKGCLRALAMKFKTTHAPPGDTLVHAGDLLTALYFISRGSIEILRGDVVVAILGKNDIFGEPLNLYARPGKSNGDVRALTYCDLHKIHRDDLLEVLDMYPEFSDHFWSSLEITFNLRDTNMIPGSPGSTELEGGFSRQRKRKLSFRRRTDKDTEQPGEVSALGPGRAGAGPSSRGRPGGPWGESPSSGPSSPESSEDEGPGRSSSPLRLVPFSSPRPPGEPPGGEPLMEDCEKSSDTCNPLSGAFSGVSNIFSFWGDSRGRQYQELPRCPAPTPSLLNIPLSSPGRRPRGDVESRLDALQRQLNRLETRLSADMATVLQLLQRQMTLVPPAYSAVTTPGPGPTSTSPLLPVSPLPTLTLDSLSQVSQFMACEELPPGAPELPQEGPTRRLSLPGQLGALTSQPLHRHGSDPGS

This experiment addresses human ether-à-go-go-related gene (hERG) potassium channel (human, UniProt Q12809). As to the kind of experiment: primary screen, population patch clamp on CHO cells stably expressing hERG.
As for `COc1cccc(NC(=O)Nc2nnc(Cc3ccc(OC)c(OC)c3)s2)c1`, the “hERG current change (%, negative = inhibition) at 1uM” value stood at 13.1%.
Then `COc1ccc(OC)c(C2C(C(=O)c3ccc(C)o3)=C(O)C(=O)N2CCCN2CCOCC2)c1` (centres unmarked), with 8.89%; and `C/C=C(\C)C(=O)O[C@H](c1cc2ccc(=O)oc2cc1OC)[C@@H](O)C(C)(C)O`, with 10.6%.
With `O=C(Nc1nc2ccccc2[nH]1)NC1CCCCC1`, the “hERG current change (%, negative = inhibition) at 1uM” value turned out to be 9.76%.
Then `O=c1cc(-c2cccc(Br)c2)oc2cccc(O)c12`, with 15.9%; and `C#CCOC(=O)C(NC(=O)c1ccccc1)=C1CCCCC1`, with -4.89%; and `O=C(c1cccs1)N1CCN(Cc2ccccc2)CC1`, with 8.83%.
Regarding `CCn1c(SCC(=O)N2CCC(C)CC2)nc2c1c(=O)n(C)c(=O)n2C`, the “hERG current change (%, negative = inhibition) at 1uM” value is reported as 8.87%.
Then `COC(=O)c1ccc(OC)c(CSc2nnc(COc3ccccc3)o2)c1`, with -19%.
Then `NNc1ccc(Cl)c(C(=O)O)c1`, with 10.6%; and `Cl.OCCCCNCc1cc(Br)ccc1OCc1ccccc1F`, with 4.37%; and `Cn1nccc1C(=O)Nc1nnc(C2CC2)s1`, with -2.12%.
For `O=C1NC(=O)N(Cc2ccccc2)C(=O)/C1=C/C=C/c1ccco1`, the “hERG current change (%, negative = inhibition) at 1uM” value was found to be 7.07%.
Then `COCc1cc(=O)n2[nH]c(C)c(-c3ccccc3)c2n1`, with 13.1%; and `Cc1ccc(/C=C2\C(=O)NC(=O)N2C)o1`, with 4.31%.
Then `CCc1ccc(NC(=O)CSc2nc3cc(C(=O)OC)ccc3c(=O)n2Cc2ccco2)cc1`, with -0.869%; and `COc1ccc(-n2ccn3c(CCC(=O)N4CCN(c5cccc(C)c5C)CC4)nnc3c2=O)cc1`, with 15.1%.
With `CCN(CC(=O)Nc1c(F)cccc1F)C(=O)c1ccc(Sc2nncn2C)c([N+](=O)[O-])c1`, the “hERG current change (%, negative = inhibition) at 1uM” value is reported as 12.9%.
Then `Cc1cc(C)c2nc(NNC(=O)c3cc(-c4cccs4)nc4ccccc34)sc2c1`, with 11.6%; and `c1ccc(Cc2nnc3n2CCCCC3)cc1`, with 12.5%; and `CC(=O)c1cnc2ncnn2c1C`, with 7.75%.
For `COc1ccc(OC)c(S(=O)(=O)N2CCN(c3c(C)cccc3C)CC2)c1`, the “hERG current change (%, negative = inhibition) at 1uM” value is 5.85%.
Consider `Cc1cc(C)c(OCCCCCNCCO)c(C)c1`, for which the “hERG current change (%, negative = inhibition) at 1uM” value was determined as 6.3%.
Then `COc1ccc2cc(CN(CC3CCCO3)S(=O)(=O)c3ccccc3Cl)c(=O)[nH]c2c1` (centres unmarked), with 2.29%; and `CC(NCC(=O)NCCc1ccc(S(N)(=O)=O)cc1)c1ccc(F)cc1` (centres unmarked), with 15.1%.
Then `COc1ccccc1N1CCN(C(=O)CCC(=O)Nc2nnc(CC(C)C)s2)CC1`, with 2.88%.
For the compound `Cn1nc(C(C)(C)C)c(NC(=O)c2cccs2)c1C(C)(C)C`, the “hERG current change (%, negative = inhibition) at 1uM” value came to 12.4%.
Then `O=C(Nc1ccn(C2CC(OC(=O)c3ccccc3)C(CO)O2)c(=O)n1)c1ccccc1` (centres unmarked), with 12.5%; and `CCSc1nsc(NC(=O)Nc2cccc(F)c2)n1`, with 12%.
On to `COc1ccc(N(CC(=O)NC2CCCC2)C(=O)c2csnn2)cc1`, for which the “hERG current change (%, negative = inhibition) at 1uM” value was -9.36%.
In the case of `CS(=O)(=O)c1cnc(-c2ccccc2)nc1Oc1ccc(Cl)cc1`, the “hERG current change (%, negative = inhibition) at 1uM” value is listed as 11.3%.
Then `O=C(Nc1cccc(C(F)(F)F)c1)n1cc(-c2ccccn2)c(N2CCOCC2)n1`, with 4.16%.
Then `CCn1c(CNC(=O)c2ccccc2Br)nnc1SCC(=O)Nc1nncs1`, with 7.59%.
Then `CCCCNC(=O)COC(=O)c1ccccc1F`, with 4.01%; and `Cc1cccc(N/N=C/c2c(O)[nH]c(=S)[nH]c2=O)c1`, with 11.6%; and `Cc1ccccc1C(=O)NC(=S)Nc1ccc(N2CCN(C(=O)c3ccccc3)CC2)cc1`, with 7.72%.
Take `COc1ccc(CNC(=O)c2c(C)nc3ccccn23)cc1`: the “hERG current change (%, negative = inhibition) at 1uM” value is on record as -9.68%.
On to `O=C(OCC(=O)c1ccccc1Br)c1ccncc1`, for which the “hERG current change (%, negative = inhibition) at 1uM” value turned out to be 9.42%.
Then `COc1cc(C=Nc2cccc(C)c2)c(O)c([N+](=O)[O-])c1`, with 12%.
Then `CC(=O)c1c(NCc2ccccc2)nc(=O)n(-c2ccccc2)c1C`, with 4.06%; and `N#Cc1ccc(OCCN2C(=O)NC3(CCSC3)C2=O)cc1` (centres unmarked), with -23.3%.
Then `CC(C)N1CCN(c2ccc(S(=O)(=O)N3CCOCC3)cn2)CC1`, with 12.2%; and `COc1ccc(-n2c(C)c(C(C)=O)c(C(C)=O)c2C)cc1OC`, with 9.99%; and `Cc1ccc(CN(C)C2CCN(C)CC2)cc1`, with 7.88%.
